Article PMC10726135
The list shows a part of the results. At the low end of the ranking the order means little. The protein was read in a cell extract, so binding may be indirect.

target: T1, HNF4alpha2 (COS-7 nuclear extract) (UniProt P41235); test: protein-binding microarray; details: COS-7 nuclear extract on double-stranded Agilent 4x180k PBM; binding buffer, salt, pH and temperature not given; high values mean tight binding; double strand, one strand shown; sequences stand for … in …GCCTAGGGAGATTAGAGTATCGGTCGA
T1 sequence: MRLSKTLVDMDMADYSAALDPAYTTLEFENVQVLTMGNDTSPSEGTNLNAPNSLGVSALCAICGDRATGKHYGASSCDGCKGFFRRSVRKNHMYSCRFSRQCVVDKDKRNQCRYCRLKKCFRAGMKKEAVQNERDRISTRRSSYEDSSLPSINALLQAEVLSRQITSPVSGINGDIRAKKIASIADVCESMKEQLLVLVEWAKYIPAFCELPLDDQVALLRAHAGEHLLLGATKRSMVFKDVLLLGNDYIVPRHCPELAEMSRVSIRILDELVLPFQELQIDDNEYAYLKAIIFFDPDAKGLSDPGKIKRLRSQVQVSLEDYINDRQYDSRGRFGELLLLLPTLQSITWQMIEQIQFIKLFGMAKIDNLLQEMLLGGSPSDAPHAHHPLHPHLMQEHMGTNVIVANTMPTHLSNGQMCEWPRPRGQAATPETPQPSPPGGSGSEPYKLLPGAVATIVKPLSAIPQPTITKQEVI

Row | Sequence | binding signal (log2 normalized intensity)
1 | GAAAGGGCCTCTCAGGTCAGGGAAGACTGA | -1.08
2 | GCCCTCTCCATGCAGACAGTCCCTCCTCCA | 1.37
3 | TAGATAAGAGCTGAGGAAGTGCTGACCTTT | 5.77
4 | ATATGAAGCATTGCTTGAGTCACTTGGTTT | 1.23
5 | AGCAAGGTCAAAGTGCGTCCTGTGGCAAAG | 3.51
6 | AAGCAGAAGGAGGAGGAGGTTCCTGGAACT | -1.05
7 | CCCTTATCTTCTGGCCACCTCTTCCAGAGT | 0.501
8 | GCACAGAAGGAGAGAGAGGGAGAGTGGCCT | -1.16
9 | GGTGATGTGAACCTCGATCCCTGGCTAAGG | 1.24
10 | CAGACACGCTTGACTGGCTCCACCACTTTG | -1.09
11 | GACAAAGAGCAAGTGACCCTCAGACACACA | 0.268
12 | AATTTGTCTTTTCTCCCCCGATAAGGCTGC | 4.09
13 | TGGTCCTTCAAGTGTGACCCTGAACCTACA | 2.28
14 | GAGAGCAAACTTCAAAGAAGCTGTTGGAAA | -1.22
15 | GAGTGTGACTGTGGTACTCCAAAGGTCAGT | 4.61
16 | TGTGTTCCACAGTCAAGGCCAAAGGTTAAA | 5.02
17 | CTTAGCAAATATTTACTGAATGAATGTCCA | 0.528
18 | ACTTTAACCTTTAGATTACTAGGAATTGAT | 0.914
19 | GAAATATGTAGGTTTGGGGAACTTTGCACT | 3.7
20 | CCACCCTCACAGCTCAATCCAACAAATAGA | -1.12
21 | CTTTGGCCAAGGGCAGTGTTTGCCCAGCTT | 0.106
22 | GCCCTCCCCCAGAGAGAACAGTCCTACAAA | 2.08
23 | CTGCCCAGACACACAATATTATGTTTTGTT | 1.01
24 | TGATTATTTGTGAAGGCATTATTGGTGAAA | 1.29
25 | GTGTTCTGCTGCCATTGGATGGAATGTTCT | 1.78

Row | Sequence | binding signal (log2 normalized intensity)
26 | GTACAGCCTTTGATCTACAGTCAGAGGCCT | -1.15
27 | GCTTATCTCACTCCAAAGGCTGTTTGCACC | 1.29
28 | TGGGTTCAAAGAGCACATTCCTGCACCATA | 2.09
29 | TGCAAGAGAGCAAACTTCAAAGAAGCTGTT | -1.08
30 | CAGAAGACTACAAATTCCTCAATCCAGTCA | -1.04
31 | GGAAGAGGAAGCATCCTATAGGCCTATAAT | -1.14
32 | TTGTGGCAGTGAGAACAGGTTCATTCTTTA | 0.513
33 | AGGCATACCTTTCTTATCATAAGTAAAAAG | -0.0783
34 | TGTGACAAGAAAGACCCAAGGCGTATGAAG | -1.19
35 | GCGTCATCAGTCCAGGAGGGTCACAAGTCC | 2.26
36 | CTTCCAAGTCTCAGCACCTGTGCTTCACTC | -0.874
37 | CCTTATCTGAATTCCAGCATCACTAATGTC | 0.912
38 | GCCTCATTTCACCTTTGGTCTTTGGTGAAA | 3.59
39 | GTCCCCCGACCCGCCCGACTACAACAGCCT | 5.04
40 | CCACCTAGGCCGGTCAAGTCAGAGGCCCAG | -0.935
41 | GGACAGACACACCCTTCAGAGCTTGAAAAG | -1.1
42 | AATACACAATCTGAAGTCCCCTGTGCTTTG | 1.93
43 | CCACCACTGCTTCCTGCCCCCTGTGGTCAA | 4.46
44 | GTGGGAAGGGATCAGAAATTGATTTGTAAC | 0.0598
45 | CAGGGTGGGGTCTCGCTGCTTCGGCCTTTG | 1.33
46 | TACAGAATTCTCATGGAGGACTTTGGCCTT | 7.11
47 | TAAATCCCTGCCAAAATATGTCAAGTAGCT | -1.18
48 | CACAATGATAACAGCGTTTTCCCATTCATG | -0.36
49 | TCTCTGGGTCAAAGGTCATCGCACCGGCAG | 7.15
50 | GAATGACTTTGGGGAAATGACCTTTGTCCA | 8.8

Row | Sequence | binding signal (log2 normalized intensity)
51 | AGTATTTTCTGTCTAGGTGCCAGAATTGCT | -1.14
52 | CCTAAATTCAAATGGACCCAAGCGGCCATT | 1.24
53 | AAGACTCACATCTATCTCCCTACCCTCACC | 2.07
54 | CACACACCCCTCCACTGGACAGCAGCTACA | 1.55
55 | CTGGCAGAGGGGATCAAGTGGCAATAAACT | -1.14
56 | AATGTCTTTTAAATACATAGCTGGGATGAG | 0.646
57 | TGAGGGAGCAAAGGGCATGGAGGATTTAGA | 1.85
58 | TAGCTCCAGTTGGTTGCTAAGAGACAGCTC | -0.894
59 | TGCATTCCTTTGTTTATCTAACCCACATCC | 1.51
60 | CCTTTTTAATGTTTCATTAAGCAAGATATG | 1.31
61 | TGTGGGCGGGTGCAGCTTCCACCTGCAAGG | -1.07
62 | AGTCCATGTGTTAAATAATAACACTCCCAT | 0.579
63 | TTTCTCAGCTCTCCTCTGCCTCCAGCTGTT | -1.14
64 | AGAATCATCTTTGAGCTGGATGACCTTTGT | 7.46
65 | TGATAAGGAAACTTAAGTCTCAAAGGTCAG | 5.44
66 | AAGGAATTTAGCCTTTAACCTGCAGTTTCC | 1.38
67 | GCCTGCCCCTCTGACCTCTCCTCCTACCTT | 3.24
68 | CCTCCTGCCTTTCCCTTATCAGGACTTTGT | 3.71
69 | CAATTTTCAGGGTTAAAAGTTCTGCTGAGT | 0.862
70 | TCGTCCCACAATGCATTCCATATGGATTAA | 1.2
71 | CCCCCCACCCCAGAAGTATGGGAAGCTGAG | 3.48
72 | AGCAGTCTGAGTAGGAAAGACTTGCTCATT | -0.18
73 | AGACCTTTGACATCACCTAACTTGTGGCTG | 0.674
74 | TCATTTTACAGATAAGGAAACCAAGGTCCA | 1.45
75 | AACACTTGTGTCAACCGTGTCAACATTGCG | -1.19

Row | Sequence | binding signal (log2 normalized intensity)
76 | GCCTCCAAAGTCCGCTTGCCTGAGGGTCAT | 2.41
77 | TAGGTACTATTATTAGAGTCCCTTTTTTAG | -0.137
78 | TTTGATAATTACAGAGCAAGTAGAGCTGCT | -1.09
79 | AAAGTTTATGTGTGAGCCTATAATTGATGT | 1.5
80 | AGGGTTAAATCTCGGTATAATTCCTAAATA | -1.1
81 | TTACACCTGGGTGCTCCCTCCCCCTGCATG | 4.23
82 | GCCTGCACACGGTGTCCAGATTCCAGCCTC | -1
83 | TCTATCCAGATGATCTTTACCCTGGAATGC | 2.55
84 | ATAGGGTCAGTCTTTGTTCTAGTAAGGCCT | 1.71
85 | ATAGGAACATGAACTGAGCAGGCCTGGGCT | -1.04
86 | GTGGACTTTGTCCTGTGGGCTGTAAAAATC | 5.03
87 | GGGCCCCATCATGTGTACAGAGCTGAAGTT | 0.913
88 | TCGAGGACAGGATGGGGGTGGGAGGCTGGG | -1.07
89 | CTATCATTATCTCTCACTGCAGAAACTCTG | 1.35
90 | CGGATGACTCTTGGGCAGTCTAAAGTCTGA | 1.35
91 | TACAAACACCAACCTGTTCCAAAGTCCACC | 6.05
92 | GCAAAGGTTTCCTAAACAGTTACCGAGAGG | -1.09
93 | CTGCACAGGACTGCTCTCTACTCAGGGGGT | -1.05
94 | AGTAAAAGGTAGATACTATAATTAGAATCT | -1.05
95 | TTACCGGTGTGACTTTGGTTGGATTTCTTG | 1.54
96 | GAATAGAAAGAGGTCAATGTACTTACAGCT | -0.734
97 | TTGGAAAGGCAGAGGAAAGCCCTAGCTGAC | -1.07
98 | TATCTATTGGGTACAATGTTCACTATTTGA | 2.76
99 | TGCTTTAGGCCACCTGTGTCAACATGGACT | 2.48
100 | GCTAGAGAGTTCAAGAAGGGCAGTTGACAG | -0.995

Row | Sequence | binding signal (log2 normalized intensity)
101 | CAAAAAGGCAAAGGTGTCAGGACCTTTCTT | 0.634
102 | TTTCCCCCTCACTGAATATGTTCGGGAGAC | 2.61
103 | ACCCGGTGTGCGTGGGTGGGAAATCATTCC | 0.922
104 | CTTTCTATCAGCTCTCCGTGGACTTTGCCC | 9.49
105 | CTAAGGGCATCTACTTTTAAAACGCTCAAA | -1.13
106 | AAGGTCACCTCTTCAGATAGCCTTTGCCTC | 0.723
107 | ACTGCATTCCCTAGATGTCGCAGTAGATAA | -0.864
108 | AACTTCTTCCAATGAAAGGTTAACCTGCTG | 1.36
109 | GGAAAAAGGGACAAAACTTCAAAGCCCCTG | 1.56
110 | CCCATGGCAGAGGCTGTACTCCTCACTGTT | -0.0328
111 | CTGGGCCCAAGTGCTCCTCCCCATCTCAGC | 3.17
112 | GATCCAGTGTGCAAATGTGTCTTTTTTAGT | 1.7
113 | GGGATGAGGACTTTGATCAGCAATGGAGAG | 2.84
114 | ACAGAAGCTGCTCTAAGAATGCAGAAACAA | -1.13
115 | CTTGTTAGTAGGGTCAAAGTCTGGATCCGT | 4.75
116 | TCTTGTCCTTCCCCTTTTGTGTTTGTCCCT | 3.04
117 | AAGGTAGGTAAGGGGGAATGCCAACAGGTC | -0.572
118 | AAAATTCCTTATGGTTAAGGTGAAAGTCCG | 3.58
119 | ATAAAAGGCTGTTCTGATGCCATTCCCTGC | -0.986
120 | AACATTCTTCTCAGTGTTTTGGGTCCTACA | 1.45
121 | TACAGTGCACTTTGACCGCTCATTTGATCC | 4.9
122 | AACCTATTAATATATTCATAACACTTGTAT | 1.36
123 | CGTATGAATGTGGGAAGCTGGCACAGCAGA | -0.822
124 | GCCACATCCCCCACACCGAGATAGTAGAGA | 3.19
125 | CAATTTCCCCCATGAAATTGAGATAAACAT | 2.53

Row | Sequence | binding signal (log2 normalized intensity)
126 | TGTGACCTTTGACTCATTATCCCCCGCAAC | 5.33
127 | AGTGTATTGTTCCCTTGCTCCACCCTTCTA | 1.85
128 | CTCTTAGTATTACCATGTCCTGTGATTAAG | 1.66
129 | TTTGTCTCTGGAGGGATCAGGTCTTTCCTG | 1.47
130 | CCGTCCACCTTTGGATCCAGCTCCTGATGT | 1.03
131 | AGCTGCAGTCATGGAGGCATCATAAACTCC | -1.08
132 | CCCAGTGAGCAATTCTTGTCCCTTTCAAGG | 0.836
133 | GGTCAAGAGTTTTAAAGTATCCCATCCATT | 1.67
134 | GTAGTTACAGCTCATTAATCATCCGTCACC | -1.31
135 | GTGGACACAAAAAGGCTGTCACACTTGCCC | 0.498
136 | TATGAGCGGCGCTGACCCCGGGAGCAGCAT | 1.05
137 | GGAGAGCTAGTAAGGAGCTGAGTCATAGTG | -0.825
138 | ACACCATTAGAGAACATGTACTTTGTACTG | 5.83
139 | AAGGGTCAAGGGTCATTTGTTTTTACAGAC | 6.27
140 | TGCAGCTGCTGCCCAAAGGTCACCTCTTCA | 3.63
141 | ATATAACCCTTGAACCTTCTTCTTGCAGTC | 2.64
142 | GCCATTGTCCTTTGGGCTCATCCATTTTCC | 1.35
143 | AGGGCATATTGACTGCCCCAACGCCTCCTT | 1.64
144 | CCCAGGGGCTCCCACCAGGGGGAGGCTCAG | -1.16
145 | GGTGTAGGTGCTGCACCTTGAAACCCCTCC | 3.14
